Test results: the supplement of paper PMC12462457
± gives the standard deviation of the averaged measurements. Some of the results follow.

Tested on: OVCAR8
Test: cell count relative to DMSO vehicle (fold change); OVCAR8 is a high-grade serous ovarian cancer line and CX-5461 an RNA polymerase I inhibitor; higher = more surviving senescent cells (less killing)
Details: senescence inducer: CX-5461 3 µM 48 h, then 6 d recovery (CX senescent), exposure time 24 h

| SMILES | cell count (compound dose 1 µM) | cell count (compound dose 5 µM) |
| --- | --- | --- |
| CC#CCn1c(N2CCC[C@@H](N)C2)nc2c1c(=O)n(Cc1nc(C)c3ccccc3n1)c(=O)n2C [Linagliptin] | 1.06 ± 0.055 | 1.05 ± 0.17 |
| C[C@@H]1CC[C@@]2(OC1)O[C@H]1C[C@H]3[C@@H]4CC=C5C[C@@H](O[C@@H]6O[C@H](CO)[C@@H](O[C@@H]7O[C@@H](C)[C@H](O[C@@H]8O[C@@H](C)[C@H](O)[C@@H](O)[C@H]8O)[C@@H](O)[C@H]7O)[C@H](O)[C@H]6O[C@@H]6O[C@@H](C)[C@H](O)[C@@H](O)[C@H]6O)CC[C@]5(C)[C@H]4CC[C@]3(C)[C@@]1(O)[C@@H]2C [Paris saponin VII] | 0.355 ± 0.093 | 0.0185 ± 0.005 |
| CC(C)(CO)[C@@H](O)C(=O)NCCC(=O)O [D-Pantothenic acid (sodium)] | 1.21 ± 0.25 | 1.17 ± 0.16 |
| CC(=O)c1c(Nc2ccc(Cl)cc2)[nH]c2c(Br)ccc(Cl)c2c1=O | 1.18 ± 0.38 | 1.37 ± 0.63 |
| CCn1c2ccccc2c2cc(CNC)ccc21 | 1.14 ± 0.14 | 1.063 ± 0.0028 |
| CCCOC(=O)c1ccc(O)cc1 [Propylparaben] | 1.15 ± 0.024 | 1.1 ± 0.084 |
| COc1cc2ccc(=O)oc2c(O)c1O [Fraxetin] | 1.25 ± 0.29 | 1.1 ± 0.28 |
| O=C(NCCN1CCOCC1)Nc1nc2ccc(Sc3nnc4ccc(-c5ccc(F)cc5)nn34)cc2s1 | 1.13 ± 0.17 | 1.1 ± 0.25 |
| CCOC(=O)C1=C(C)NC(=S)NC1c1cccc(O)c1 (stereo unspecified) [Monastrol] | 1.05 ± 0.04 | 1.14 ± 0.03 |
| Cc1ccc(C(=O)Nc2sc(Nc3ccccc3)nc2C(N)=O)cc1 | 1.15 ± 0.021 | 1.08 ± 0.011 |
| O=C(/C=C/c1ccc(O)c(O)c1)O[C@H](Cc1ccc(O)c(O)c1)C(=O)O [Rosmarinic acid] | 1.11 ± 0.4 | 1.07 ± 0.36 |
| O=C(O)CC(C(=O)O)n1c(O)c(C2=c3cc(Br)ccc3=NC2=O)sc1=S (stereo unspecified) | 1.05 ± 0.013 | 1.07 ± 0.12 |
| C=C[C@](C)(O)CC[C@@H]1[C@@]2(C)CCCC(C)(C)[C@@H]2CC[C@@]1(C)O [Sclareol] | 1.1 ± 0.14 | 1.05 ± 0.039 |
| COc1cc(CNC(=O)CCCC/C=C/C(C)C)ccc1O | 0.593 ± 0.03 | 0.521 ± 0.063 |
| C[C@]12CC[C@@H]3c4ccc(O)cc4C[C@@H](CCCCCCCCC[S+]([O-])CCCC(F)(F)C(F)(F)F)[C@H]3[C@@H]1CC[C@@H]2O (stereo partly specified) [Fulvestrant] | 1.21 ± 0.14 | 1.22 ± 0.22 |
| COc1ccc(-c2cc(=O)c3c(O)c(OC)c(OC)cc3o2)cc1 [Salvigenin] | 1.02 ± 0.076 | 1.04 ± 0.22 |
| NC1(Cc2ccc(Cl)cc2)CCN(c2ncnc3[nH]ccc23)CC1 | 0.912 ± 0.2 | 0.5735 ± 0.00071 |
| CC(C)c1c2cc(-c3ccnc(NC4CCC(NC5CCOCC5)CC4)n3)ccc2nn1C (stereo unspecified) | 0.635 ± 0.059 | 0.57 ± 0.067 |
| CCOC(=O)C1=C(N)Oc2ccc(Br)cc2C1C(C#N)C(=O)OCC (stereo unspecified) | 1.16 ± 0.26 | 1.05 ± 0.15 |
| O=[N+]([O-])c1ccc(SCCCCCCO)c2nonc12 | 1.09 ± 0.13 | 0.567 ± 0.16 |
| COc1ccc(Cl)cc1NC(=O)Nc1cc(C)nc2ccccc12 | 1.11 ± 0.23 | 1.18 ± 0.11 |
| COc1ccc(/C=C/c2cc(O)cc(O[C@@H]3O[C@H](CO)[C@@H](O)[C@H](O)[C@H]3O)c2)cc1 [Desoxyrhaponticin] | 1.09 ± 0.22 | 1.14 ± 0.23 |

| SMILES | cell count (compound dose 1 µM) | cell count (compound dose 5 µM) |
| --- | --- | --- |
| O=C(/C=C/c1ccc(O)c(O)c1)O[C@@H]1C[C@@](O)(C(=O)O)C[C@@H](O)[C@@H]1O [Neochlorogenic acid] | 0.877 ± 0.095 | 0.91 ± 0.096 |
| C=C1C(=O)O[C@@H]2C[C@@]3(C)CCCC(=C)[C@@H]3C[C@H]12 [Isoalantolactone] | 1.28 ± 0.35 | 0.669 ± 0.048 |
| CC(C)[C@@H](C)[C@@H](O)[C@H](O)[C@@H](C)[C@H]1CC[C@H]2[C@@H]3COC(=O)[C@H]4C[C@H](O)[C@H](O)C[C@]4(C)[C@H]3CC[C@]12C [Epibrassinolide] | 1.22 ± 0.12 | 1.13 ± 0.1 |
| C[C@]12C=CC(=O)N[C@@H]1CC[C@@H]1[C@@H]2CC[C@]2(C)[C@@H](C(=O)Nc3cc(C(F)(F)F)ccc3C(F)(F)F)CC[C@@H]12 [Dutasteride] | 1.03 ± 0.071 | 1.07 ± 0.048 |
| O=C(Nc1ccccc1-c1cn2c(CN3CC[C@@H](O)C3)csc2n1)c1ccc2ccccc2c1 | 1.15 ± 0.19 | 1.25 ± 0.32 |
| COc1ccc(-c2nc(N3CCOCC3)c3sc(CN(C)c4ncc(C(=O)NO)cn4)cc3n2)cn1 | 0.893 ± 0.58 | 0.71 ± 0.53 |
| Cc1cnc(Nc2ccc(OCCN3CCCC3)cc2)nc1Nc1cccc(S(=O)(=O)NC(C)(C)C)c1 | 1 ± 0.1 | 0.733 ± 0.43 |
| c1ccc2c(CCNc3ccc(Nc4ccncc4)cc3)c[nH]c2c1 [Serdemetan] | 0.954 ± 0.071 | 0.798 ± 0.088 |
| COc1ccc(-c2cc(=O)c3c(O)c(OC)c(OC)c(OC)c3o2)cc1 | 1.2 ± 0.12 | 1.08 ± 0.16 |
| CCCCCCCC/C=C/CCCCCCCC(=O)OC[C@H]1O[C@@H](n2ccc(N)nc2=O)C(F)(F)[C@@H]1O [Gemcitabine (elaidate)] | 1.2 ± 0.3 | 1.09 ± 0.24 |
| Cc1cc(/C=C2\CC/C(=C\c3cc(C)c(O)c(C)c3)C2=O)cc(C)c1O [Pentagamavunon-1] | 1.09 ± 0.14 | 1.05 ± 0.029 |
| CCCOc1ccc2[nH]c(NC(=O)OC)nc2c1 | 1.16 ± 0.035 | 1.159 ± 0.0021 |
| CN1CCN(c2ccc3nc(-c4ccc5nc(-c6cccc(OCCCC(=O)NCCCN=[N+]=[N-])c6)[nH]c5c4)[nH]c3c2)CC1 [Targapremir-210] | 1.08 ± 0.31 | 1.04 ± 0.27 |
| O=C(c1ccc(F)c(F)c1Nc1ccc(I)cc1F)N1CC(O)([C@@H]2CCCCN2)C1 [Cobimetinib] | 1.15 ± 0.064 | 1.15 ± 0.049 |
| CCCCS(=N)(=O)CCC(N)C(=O)O (stereo unspecified) | 1.16 ± 0.29 | 0.912 ± 0.0057 |
| C=CC(=O)N1CCC[C@H](n2c(=O)n(-c3ccc(Oc4ccccc4)cc3)c3c(N)ncnc32)C1 [ONO-4059 (analog)] | 1.07 ± 0.018 | 0.957 ± 0.076 |
| COc1cc(O)c(C(=O)/C=C/c2ccccc2)c(OC)c1 [Flavokawain B] | 1.18 ± 0.092 | 1.2 ± 0.19 |
| CCCc1nn(C)c2c(=O)[nH]c(-c3cc(S(=O)(=O)N4CCN(C)CC4)ccc3OCC)nc12 | 1.09 ± 0.019 | 1.21 ± 0.093 |
| N#CC[C@H](C1CCCC1)n1cc(-c2ncnc3[nH]ccc23)cn1 [Ruxolitinib] | 0.958 ± 0.25 | 0.618 ± 0.16 |
| COc1cc(CNC(=O)CCCCCCC(C)C)ccc1O [Dihydrocapsaicin] | 1.09 ± 0.12 | 0.971 ± 0.11 |
| O=C1O[C@H]([C@@H](O)CO)C(O)=C1O [L-Ascorbic acid] | 1.1 ± 0.44 | 1.11 ± 0.22 |
